# Test results published in the supplement of paper PMC3334620.
# Whole data set: some 33,000 sequences, median “E-score (-0.5 to 0.5)” near -0.036, cut for the highest 2% near 0.37. This is one part of the list.
# Molecular target: T1, Yer064c (UniProt P40041)
# T1 sequence: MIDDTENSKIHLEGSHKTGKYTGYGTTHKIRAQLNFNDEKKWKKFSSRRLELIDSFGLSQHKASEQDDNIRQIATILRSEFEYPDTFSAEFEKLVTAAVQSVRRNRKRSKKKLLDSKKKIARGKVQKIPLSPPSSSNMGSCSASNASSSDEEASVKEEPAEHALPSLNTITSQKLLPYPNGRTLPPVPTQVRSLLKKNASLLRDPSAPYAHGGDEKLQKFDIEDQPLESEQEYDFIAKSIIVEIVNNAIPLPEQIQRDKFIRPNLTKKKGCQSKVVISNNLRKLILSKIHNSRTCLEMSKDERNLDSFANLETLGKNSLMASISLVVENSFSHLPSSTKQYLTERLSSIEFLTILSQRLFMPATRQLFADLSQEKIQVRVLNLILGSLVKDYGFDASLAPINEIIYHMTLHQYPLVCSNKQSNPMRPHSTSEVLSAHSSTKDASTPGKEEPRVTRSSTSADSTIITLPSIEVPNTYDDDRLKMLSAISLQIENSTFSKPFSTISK
# Assay: PBM E-score (8-mer binding enrichment) (E-score (-0.5 to 0.5)); higher = stronger / more preferred TF binding; most listed sequences are background and not binding sites
# Conditions: protein concentration: 200 nM; construct: GST-full length
# Description: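 Universal 'all 10-mer' protein binding microarrays (Agilent AMADID 015681) probed with GST-tagged S. cerevisiae TFs (full-length or DBD) made by in vitro transcription/translation (PURExpress), about 100-200 nM. Bound TF was detected with fluorescent anti-GST. Each ungapped 8-mer (which stands for itself and its reverse complement) is scored by the PBM enrichment score (E-score), a modified Wilcoxon-Mann-Whitney statistic from -0.5 to +0.5, computed with the Universal PBM Analysis Suite. Scale: above 0.35 generally sequence-specific binding.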
row,Sequence,PBM E-score
1,GATGCACA,-0.176
2,GTTGTCGA,-0.158
3,ATTTCCCC,-0.274
4,AGCACATA,0.0171
5,ATGATGTA,0.0484
6,ATGCTTTC,-0.175
7,GAACTTGA,0.0831
8,ACGGACCG,-0.153
9,GGTATTTA,-0.0324
10,AAAAGAAG,0.0497
11,CTATAGAA,0.0616
12,GATGATCC,0.118
13,AGGTGGTG,-0.197
14,CCGGAGAG,-0.0818
15,CTAACCGC,0.0313
16,ATCGTAGA,0.0225
17,CTAACTCC,0.0875
18,TTATCGAA,-0.172
19,CTTACGTA,0.131
20,AACGAGAA,0.0779
21,AACGAAAA,0.0213
22,TAGTCGGA,0.288
23,ACCCGAGT,0.0782
24,ACTAACCG,0.163
25,ATAAGAAA,-0.00846

row,Sequence,PBM E-score
1,AACTTTCC,-0.196
2,TACCTACA,-0.0717
3,AAACGGCT,-0.25
4,AAGTGAAG,-0.0561
5,ATGGAGTG,-0.143
6,ACTATCAT,0.172
7,AGTTCACA,0.0835
8,AGGTTAGA,0.00887
9,TCAATCAA,0.281
10,ACCGCAAC,-0.0492
11,CGTATATC,-0.199
12,ATCCCCCC,-0.274
13,CTCAGGCC,-0.12
14,CGTGCCTA,-0.311
15,AGTACTCG,0.261
16,ACTCCGCT,0.0247
17,CTTTTCCA,-0.0828
18,CGCCAGGC,-0.0942
19,GACTCCCA,0.381
20,GCGTTATA,-0.0598
21,AGCTCTAG,-0.103
22,GAATCAAC,0.358
23,CATGGGTC,0.0941
24,GGGTCGTA,-0.191
25,GACACGAA,-0.156

row,Sequence,PBM E-score
1,CACATCAA,0.128
2,TACGTGCA,-0.0319
3,AGAAGGAT,-0.0779
4,ACCCCATA,-0.00545
5,CCTTGAAG,-0.0782
6,ACAGTCCC,0.0079
7,TAGGGGAA,-0.172
8,GCATGCAC,-0.0257
9,CCGAATCA,0.348
10,GCCATTAA,0.0294
11,ACGCCAGC,-0.222
12,CTCAATCC,0.146
13,GGCGACTA,0.402
14,TAGCCTCA,0.0105
15,CTCCCCTA,0.0602
16,ATTTTACA,-0.00986
17,CGCCGCAG,-0.2
18,CGCTTGCA,-0.132
19,CAACGGAC,0.00462
20,ATGGGCCC,-0.231
21,AGGGCGTC,-0.364
22,CTTCGTGC,-0.00244
23,TCCCGACA,0.0419
24,GTCCTCTA,-0.0702
25,AAAGAATA,0.0434

row,Sequence,PBM E-score
1,AATAAGAA,0.0151
2,AGACTTCA,0.13
3,AATTGGTA,-0.0745
4,CGATTCAG,0.257
5,GCTGTCTA,-0.128
6,CCATTAGC,-0.0335
7,AAGAGTCT,0.355
8,CAAGGTCG,-0.167
9,CGGGCCTC,-0.321
10,CACTGAAG,-0.0332
11,CGAGTTAA,0.112
12,AAAACACC,-0.0208
13,ACGTAGCG,-0.331
14,CTTCAGCC,-0.0159
15,ACGACAAA,0.0154
16,AGCAGGCA,-0.0692
17,TACCACAA,0.126
18,AGTCGATC,0.109
19,TCCTAACA,0.00757
20,CGGCGGGC,-0.0702
21,ACGCTGGG,-0.301
22,GGTAGTTA,-0.0766
23,GTGATTCA,0.474
24,CGTAATTA,-0.00543
25,GGAGTCGA,0.212

row,Sequence,PBM E-score
1,CGTACGAC,0.041
2,CAGATCAC,-0.0955
3,CGATGGAG,-0.0738
4,ACTGGGAT,0.0594
5,ACATATAC,0.0229
6,AGGCAAGG,-0.0548
7,CGGCAGGC,-0.052
8,ATGGACGG,-0.109
9,CACCGTGG,-0.199
10,CAGTCCGC,0.16
11,GGCTGCGA,0.0456
12,AGCTAAAG,0.0851
13,CATCAAAG,0.0258
14,ACTACGTG,0.156
15,AAACTATA,0.09
16,AAACCTTA,0.0874
17,ACGACGCC,-0.211
18,ATGCGAGA,0.00686
19,CCGCTGCC,-0.118
20,CAAATACC,-0.0305
21,CGCGTCAA,-0.105
22,ATCGTGAG,0.124
23,AGCCAAAC,-0.075
24,CGAATCTC,-0.0267
25,ATACTAAA,0.163

row,Sequence,PBM E-score
1,CAATCGGG,-0.0625
2,CTGCGTCC,-0.0559
3,GGCTTTAA,0.0622
4,GAGATCTC,-0.163
5,ATCCTGTA,0.0133
6,AGCAAATG,-0.0298
7,TAGAGACA,0.06
8,GGCATTAC,-0.223
9,AGATGAGC,0.0974
10,TATGTAGA,0.0301
11,CATGCAAG,-0.0496
12,CCGAGCTA,-0.155
13,CACGAGGA,-0.014
14,ATGGTGGC,-0.122
15,ATATTTAC,0.0883
16,AAAAGTGA,0.192
17,GGAACGGA,-0.254
18,CGCCTACA,-0.203
19,AGTAACAA,0.13
20,GCACGCAA,-0.354
21,CGCCTAGC,-0.36
22,GGAATATA,0.103
23,CTACAGAG,-0.00669
24,CACCGTGC,-0.0357
25,CCCGGACC,-0.189

row,Sequence,PBM E-score
1,CCGCGGAA,-0.139
2,AGCACCAC,-0.223
3,CTACGAAA,-0.119
4,CATAAAGA,0.0843
5,AATACCGT,-0.0314
6,CTCTGACA,-0.0688
7,GCCGTGCC,-0.24
8,TCAGTACA,0.0887
9,AACTGCAA,-0.0944
10,ATGTTCCC,-0.106
11,ACCCCTAG,-0.115
12,ACGTATAA,-0.0181
13,ATTCCAGC,-0.115
14,CCCCGTCA,-0.156
15,GGTGAGAC,0.226
16,GAATTTGC,-0.133
17,CGGATGCA,-0.221
18,AGTCTTCC,0.432
19,AGGAAAGC,-0.307
20,ACTAAAGT,0.187
21,CGACAATC,0.0476
22,CTTGAAGC,-0.0843
